Biological target: T1, retinoid x receptor (RXRα) (human, UniProt P19793 1-462)
T1 construct: mature; In vitro translated full length receptor; 35S-labelled in the column and immunoprecipitation experiments
T1 sequence (looked up): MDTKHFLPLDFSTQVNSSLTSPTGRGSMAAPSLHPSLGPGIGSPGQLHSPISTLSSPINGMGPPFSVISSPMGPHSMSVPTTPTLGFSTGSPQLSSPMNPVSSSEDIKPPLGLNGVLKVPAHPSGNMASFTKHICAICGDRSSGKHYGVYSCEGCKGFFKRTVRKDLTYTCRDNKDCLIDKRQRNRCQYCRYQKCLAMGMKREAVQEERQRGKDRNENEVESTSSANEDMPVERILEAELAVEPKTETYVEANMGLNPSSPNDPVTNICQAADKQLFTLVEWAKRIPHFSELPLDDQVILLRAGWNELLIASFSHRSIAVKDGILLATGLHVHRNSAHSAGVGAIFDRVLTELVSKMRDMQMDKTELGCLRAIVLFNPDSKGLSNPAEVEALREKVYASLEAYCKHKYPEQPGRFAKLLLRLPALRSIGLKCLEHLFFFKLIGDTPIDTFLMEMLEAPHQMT
Experiment: glutathione sepharose affinity column, 35S-labelled RXRα, no DNA

B1: glutathione S-transferase (vector control protein) (enzyme)
chain: not shown
notes: Control protein; also called glutathione transferase; glutathione transferase control protein
binding result: no binding

— patent US7098310 (LIGAND PHARMACEUTICALS, dated 2006)
